Measured values published in the supplement of paper PMC10126150.
Sequences with one replicate were seen in a single cluster, so their values are uncertain.

The sequences below were run on ATP (assay: switch fluorescence ratio, 500 uM ATP over buffer (Cy3 cluster intensity, sum of 5 cycles each) (fold (ratio)); higher = stronger signal-on switching upon ATP binding; sequences stand for … in TCGTCGGCAGCGTCAGATGTGTATAAGAGACAGTTTTTTTTTTTTTTTTTTTTTTTTT…TC). Conditions: aptamer strand: ATP DNA aptamer (quencher-CACCTGGGGGAGTATTGCGGAGGAAGG + anchor), 100 nM annealed; ATP concentration: 500 uM; one replicate.
Procedure, shortened: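 Exposure to 500 uM ATP lasted 15 min at 22 °C before imaging, and a selection-buffer image was taken beforehand, for Cy3-labelled switching-strand clusters on a modified Illumina MiSeq flow-cell annealed to 100 nM quencher-labelled ATP aptamer. Five buffer/ATP cycles were run with NaOH stripping and re-annealing between them. The fluorescence ratio per cluster is summed target-cycle over summed buffer-cycle Cy3 intensity, averaged per switch-domain sequence. Clusters outside 100-1000 RFU were excluded.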

**Q.** For TTACATGGGG, which switch fluorescence ratio is on record?
**A.** 0.992

**Q.** For TTACCAAATG, which switch fluorescence ratio is on record?
**A.** 1.03

**Q.** Which switch fluorescence ratio does the source give for TTACCAATTA here?
**A.** 1.03

**Q.** How did the switch fluorescence ratio turn out when TTACCATTTT was run?
**A.** 1.04

**Q.** TTACCGAATT was tested. Which switch fluorescence ratio did it give?
**A.** 1.06

**Q.** TTACCTAGCA was tested. Which switch fluorescence ratio did it give?
**A.** 1.1

**Q.** TTACGAAGCC was tested. Which switch fluorescence ratio did it give?
**A.** 1.44

**Q.** Which switch fluorescence ratio does the source give for TTACGAG here?
**A.** 1.03

**Q.** How did the switch fluorescence ratio turn out when TTACGGAGTA was run?
**A.** 1.01

**Q.** TTACGGTCAC was tested. Which switch fluorescence ratio did it give?
**A.** 1.42

**Q.** With TTACGGTGAT as the sequence, how does the switch fluorescence ratio read?
**A.** 1.02

**Q.** How did the switch fluorescence ratio turn out when TTACGGTTCC was run?
**A.** 1.06

**Q.** Which switch fluorescence ratio does the source give for TTACGGTTGA here?
**A.** 1.03

**Q.** Which switch fluorescence ratio does the source give for TTACGTCCAT here?
**A.** 1.08

**Q.** For TTACGTTAGA, which switch fluorescence ratio is on record?
**A.** 1.07

**Q.** With TTACTATGGT as the sequence, how does the switch fluorescence ratio read?
**A.** 0.998

**Q.** Which switch fluorescence ratio does the source give for TTACTCAGAG here?
**A.** 0.981

**Q.** With TTACTGGATT as the sequence, how does the switch fluorescence ratio read?
**A.** 1.04

**Q.** How did the switch fluorescence ratio turn out when TTACTGTTCG was run?
**A.** 1.04

**Q.** Which switch fluorescence ratio does the source give for TTACTTGGAC here?
**A.** 1.02

**Q.** Which switch fluorescence ratio does the source give for TTAGAAGTTC here?
**A.** 0.963

**Q.** TTAGAATATC was tested. Which switch fluorescence ratio did it give?
**A.** 0.984

**Q.** Which switch fluorescence ratio does the source give for TTAGAATGAT here?
**A.** 1.01

**Q.** With TTAGACTCT as the sequence, how does the switch fluorescence ratio read?
**A.** 1.02

**Q.** With TTAGAGCGGA as the sequence, how does the switch fluorescence ratio read?
**A.** 1.03

**Q.** How did the switch fluorescence ratio turn out when TTAGAGTAGG was run?
**A.** 1.01

**Q.** With TTAGATCTTA as the sequence, how does the switch fluorescence ratio read?
**A.** 0.98

**Q.** How did the switch fluorescence ratio turn out when TTAGCAA was run?
**A.** 2.14

**Q.** For TTAGCACGTT, which switch fluorescence ratio is on record?
**A.** 1.01

**Q.** TTAGCAGGCC was tested. Which switch fluorescence ratio did it give?
**A.** 0.925

**Q.** For TTAGCATAAC, which switch fluorescence ratio is on record?
**A.** 2.04

**Q.** With TTAGCATACA as the sequence, how does the switch fluorescence ratio read?
**A.** 1.78

**Q.** Which switch fluorescence ratio does the source give for TTAGCCGACG here?
**A.** 1.04

**Q.** Which switch fluorescence ratio does the source give for TTAGCGACG here?
**A.** 1.04

**Q.** With TTAGCGCGCA as the sequence, how does the switch fluorescence ratio read?
**A.** 1.04

**Q.** Which switch fluorescence ratio does the source give for TTAGCGCTAA here?
**A.** 1.02

**Q.** How did the switch fluorescence ratio turn out when TTAGCGGGCC was run?
**A.** 0.992

**Q.** TTAGCGGGTA was tested. Which switch fluorescence ratio did it give?
**A.** 1.03

**Q.** For TTAGCTGTAA, which switch fluorescence ratio is on record?
**A.** 1.09

**Q.** TTAGGATTGT was tested. Which switch fluorescence ratio did it give?
**A.** 0.977

**Q.** With TTAGGCATGG as the sequence, how does the switch fluorescence ratio read?
**A.** 1.01

**Q.** For TTAGGCGCTA, which switch fluorescence ratio is on record?
**A.** 0.983

**Q.** TTAGGCGTTA was tested. Which switch fluorescence ratio did it give?
**A.** 0.951

**Q.** Which switch fluorescence ratio does the source give for TTAGGGATG here?
**A.** 1.06

**Q.** How did the switch fluorescence ratio turn out when TTAGGGTCG was run?
**A.** 0.973

**Q.** Which switch fluorescence ratio does the source give for TTAGGGTTCG here?
**A.** 1.08

**Q.** How did the switch fluorescence ratio turn out when TTAGGTAGCT was run?
**A.** 0.992

**Q.** Which switch fluorescence ratio does the source give for TTAGTAATCA here?
**A.** 1.02

**Q.** TTAGTAATTG was tested. Which switch fluorescence ratio did it give?
**A.** 0.947

**Q.** Which switch fluorescence ratio does the source give for TTAGTACAGT here?
**A.** 1.08

**Q.** For TTAGTCACCT, which switch fluorescence ratio is on record?
**A.** 1.14

**Q.** For TTAGTCCTGG, which switch fluorescence ratio is on record?
**A.** 0.983

**Q.** TTAGTCGTTT was tested. Which switch fluorescence ratio did it give?
**A.** 0.994

**Q.** Which switch fluorescence ratio does the source give for TTAGTCTTGG here?
**A.** 0.977

**Q.** For TTAGTGATT, which switch fluorescence ratio is on record?
**A.** 0.983

**Q.** For TTAGTGGTCT, which switch fluorescence ratio is on record?
**A.** 1.03

**Q.** Which switch fluorescence ratio does the source give for TTAGTGTGCC here?
**A.** 0.959

**Q.** Which switch fluorescence ratio does the source give for TTAGTGTTAT here?
**A.** 0.971

**Q.** How did the switch fluorescence ratio turn out when TTAGTTACTT was run?
**A.** 1.05

**Q.** With TTAGTTCCTG as the sequence, how does the switch fluorescence ratio read?
**A.** 0.99

**Q.** TTAGTTGGC was tested. Which switch fluorescence ratio did it give?
**A.** 1.01

**Q.** TTAGTTTCAC was tested. Which switch fluorescence ratio did it give?
**A.** 0.975

**Q.** Which switch fluorescence ratio does the source give for TTATAACTTC here?
**A.** 1.1

**Q.** How did the switch fluorescence ratio turn out when TTATACGCCT was run?
**A.** 1.05

**Q.** For TTATACGTAC, which switch fluorescence ratio is on record?
**A.** 1.88

**Q.** Which switch fluorescence ratio does the source give for TTATAGACCA here?
**A.** 1.08

**Q.** For TTATAGCCCG, which switch fluorescence ratio is on record?
**A.** 1.05

**Q.** With TTATAGCGTT as the sequence, how does the switch fluorescence ratio read?
**A.** 0.949

**Q.** TTATATACCC was tested. Which switch fluorescence ratio did it give?
**A.** 1.02

**Q.** How did the switch fluorescence ratio turn out when TTATATATCT was run?
**A.** 0.985

**Q.** With TTATATCATT as the sequence, how does the switch fluorescence ratio read?
**A.** 1

**Q.** With TTATATGCG as the sequence, how does the switch fluorescence ratio read?
**A.** 1.01

**Q.** With TTATATGGTA as the sequence, how does the switch fluorescence ratio read?
**A.** 1.04

**Q.** How did the switch fluorescence ratio turn out when TTATCACAGC was run?
**A.** 0.955

**Q.** How did the switch fluorescence ratio turn out when TTATCACCTC was run?
**A.** 1.03

**Q.** Which switch fluorescence ratio does the source give for TTATCAGGCT here?
**A.** 0.994

**Q.** Which switch fluorescence ratio does the source give for TTATCCA here?
**A.** 0.951

**Q.** How did the switch fluorescence ratio turn out when TTATCCGTGA was run?
**A.** 1.18

**Q.** TTATCCGTGG was tested. Which switch fluorescence ratio did it give?
**A.** 0.99

**Q.** Which switch fluorescence ratio does the source give for TTATCTCATG here?
**A.** 1.02

**Q.** Which switch fluorescence ratio does the source give for TTATCTTTTG here?
**A.** 0.965

**Q.** How did the switch fluorescence ratio turn out when TTATGAGAAA was run?
**A.** 0.977

**Q.** For TTATGATGA, which switch fluorescence ratio is on record?
**A.** 0.969

**Q.** With TTATGCAGAT as the sequence, how does the switch fluorescence ratio read?
**A.** 0.947

**Q.** TTATGCTAGA was tested. Which switch fluorescence ratio did it give?
**A.** 1.05

**Q.** TTATGGCATG was tested. Which switch fluorescence ratio did it give?
**A.** 0.953

**Q.** TTATGGCTAG was tested. Which switch fluorescence ratio did it give?
**A.** 1.04

**Q.** With TTATGGTAGA as the sequence, how does the switch fluorescence ratio read?
**A.** 1.01

**Q.** TTATGGTT was tested. Which switch fluorescence ratio did it give?
**A.** 1.01

**Q.** TTATGTTAGC was tested. Which switch fluorescence ratio did it give?
**A.** 0.984

**Q.** For TTATTAAGAG, which switch fluorescence ratio is on record?
**A.** 1.03

**Q.** For TTATTACATT, which switch fluorescence ratio is on record?
**A.** 1.03

**Q.** How did the switch fluorescence ratio turn out when TTATTAGAGG was run?
**A.** 0.938

**Q.** For TTATTAGTAA, which switch fluorescence ratio is on record?
**A.** 0.999

**Q.** Which switch fluorescence ratio does the source give for TTATTATCCT here?
**A.** 1.03

**Q.** With TTATTCAACT as the sequence, how does the switch fluorescence ratio read?
**A.** 1.01

**Q.** TTATTCAGAC was tested. Which switch fluorescence ratio did it give?
**A.** 0.96

**Q.** With TTATTCGCAG as the sequence, how does the switch fluorescence ratio read?
**A.** 1.07

**Q.** TTATTCTAGC was tested. Which switch fluorescence ratio did it give?
**A.** 0.981

**Q.** Which switch fluorescence ratio does the source give for TTATTGAAAT here?
**A.** 0.992

**Q.** TTATTGCCGT was tested. Which switch fluorescence ratio did it give?
**A.** 1.01
